The text below walks through data of the supplement of paper PMC3334620.

Over roughly 33,000 sequences, “E-score (-0.5 to 0.5)” has its median near -0.036; the highest 2% begin near 0.37. Some of the results follow.

The target of this test is T1, Yer064c (UniProt P40041).
T1 sequence: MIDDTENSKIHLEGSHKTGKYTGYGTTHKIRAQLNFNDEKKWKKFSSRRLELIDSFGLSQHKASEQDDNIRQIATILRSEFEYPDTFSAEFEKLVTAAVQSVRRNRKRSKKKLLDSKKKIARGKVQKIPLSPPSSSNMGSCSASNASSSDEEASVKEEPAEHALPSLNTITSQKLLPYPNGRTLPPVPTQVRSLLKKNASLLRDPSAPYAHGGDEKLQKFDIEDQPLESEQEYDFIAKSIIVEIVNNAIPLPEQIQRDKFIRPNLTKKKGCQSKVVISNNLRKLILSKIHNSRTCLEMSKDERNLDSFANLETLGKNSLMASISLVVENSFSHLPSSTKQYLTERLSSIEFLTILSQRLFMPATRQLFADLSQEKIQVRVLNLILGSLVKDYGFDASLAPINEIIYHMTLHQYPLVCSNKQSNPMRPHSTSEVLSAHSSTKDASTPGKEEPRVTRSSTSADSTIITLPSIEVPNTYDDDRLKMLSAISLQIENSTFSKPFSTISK
The test can be described thus: PBM E-score (8-mer binding enrichment) (E-score (-0.5 to 0.5)); higher = stronger / more preferred TF binding; most listed sequences are background and not binding sites. The following applies: protein concentration: 200 nM; construct: GST-full length. In outline: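 Using PURExpress in vitro transcription/translation, GST-tagged yeast transcription factors were made in full-length or DNA-binding-domain form. These were applied at about 100-200 nM to double-stranded universal all-10-mer Agilent arrays, and bound protein was detected with fluorescent anti-GST. Scans were normalised with masliner before the Universal PBM Analysis Suite assigned E-scores to ungapped eight-base words pooled with their reverse complements.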
As to ATCTTTTA, the “PBM E-score” value was 0.111.

For the sequence GCACGGGC, the “PBM E-score” value is -0.321.

Consider ACGCGTCT, for which the “PBM E-score” value is -0.322. The value for GACGTCAA was -0.0626. The value for ATAGAAGG was -0.119; that for AGCCCCTG was -0.214. The value for AACCCTAA was -0.121; that for GCAAGTGC was -0.297. CTGCGCTC: the “PBM E-score” value was -0.179. In the case of AGTGCCCG it was -0.24. AACGTAAA: the “PBM E-score” value was -0.0356. In the case of ATGATGTG it was 0.197. The value for ATAGGTCC was -0.0251; that for CGTCAGAC was -0.124; that for AGATTTTC was -0.0447. In the case of AACGGCGC it was -0.0388.

For GTCTTTTA, the “PBM E-score” value turned out to be 0.00579.

In the case of CGTCCGAA, the “PBM E-score” value is -0.074. As for CACGGCAG, the “PBM E-score” value is -0.164. In the case of TCTCGACA it was -0.0599; in that of CACCTAAC, -0.079; in that of CTGGTTTA, 0.017. Consider GCTTTCGA, for which the “PBM E-score” value is -0.197.

Regarding AGTACACA, the “PBM E-score” value was 0.239.

As to CCACTTCG, the “PBM E-score” value is -0.225. The value for CAACTGTA was -0.182; that for CCCGAGGA was -0.251; that for ATGTCAGG was -0.186. For the sequence ATTGTTTC, the “PBM E-score” value worked out at 0.24. In the case of TCCCGTAA it was -0.236; in that of CGACGCAG, -0.285; in that of GCTGAAGA, 0.0233. The value for AACAGCTG was 0.0922; that for AACTGCAC was -0.0827; that for AGAGAAAG was -0.131. In the case of ATTGCTCA it was 0.0986; in that of CAATCCGG, -0.0586. On to CAGCTACC, for which the “PBM E-score” value was -0.0757. With AGATTGTG, the “PBM E-score” value was found to be 0.0863.

For ATTTGCTC, the “PBM E-score” value came to 0.0149. In the case of CAGCGGAC it was 0.00373; in that of AAGACAAA, 0.0693; in that of ATACCTCA, 0.0539. In the case of ATTACAAC it was -0.0222; in that of TAAAGGTA, 0.0493; in that of CTTTGATC, 0.043.

For CACTAAAG, the “PBM E-score” value is -0.0822.

Turning to CTGGATTC, the “PBM E-score” value is 0.00174. The value for CAGCCCTG was -0.0512; that for ACTTCCTC was -0.136; that for GCTCCCAC was -0.201.

As for CAAACTAC, the “PBM E-score” value was -0.0801.

As for AGCTGCCA, the “PBM E-score” value is -0.216. In the case of CGTTCCGC it was 0.0429; in that of CCAGATCG, -0.362; in that of CGCAACAG, -0.12. Regarding CCCACTTA, the “PBM E-score” value is -0.0484. The value for ACATAGAA was -0.0976; that for ATTTTCAA was 0.0969; that for AAGTCGGC was -0.0537. Consider AATTTACG, for which the “PBM E-score” value is -0.081. The value for ACCAGTCG was 0.172; that for ATCGTGTC was -0.0149; that for CAGAGAAA was -0.0599. In the case of GCTCACAC it was -0.00039. For GGTACGAA, the “PBM E-score” value worked out at 0.0766.

For AGGCGAAT, the “PBM E-score” value was 0.0274.

In the case of GAGATGCA, the “PBM E-score” value is -0.0868.

Turning to ATGCTGGG, the “PBM E-score” value was -0.17. The value for CGCTTGAA was 0.0409; that for ATACATGG was -0.0135; that for CAATCCCA was -0.215.

Take ACGTGAGG: the “PBM E-score” value was -0.149. The value for ATTAATGA was 0.238; that for ATCAGAGG was 0.0664; that for AAACAATC was 0.127.

AGGGGCGC: the “PBM E-score” value is -0.166. In the case of AAACTTTC it was -0.155. As to AAGGAGCC, the “PBM E-score” value was -0.0114. As for ATCTTTAA, the “PBM E-score” value was 0.214.

As for ACTTATAT, the “PBM E-score” value was 0.262. With ACAGGCGT, the “PBM E-score” value was -0.254.

Take CTTTGATA: the “PBM E-score” value amounted to 0.0969. In the case of AGGAGGAG, the “PBM E-score” value came out at 0.00872. The value for CGGTGTTC was -0.315; that for AAAGCCCC was -0.311.
